In all, about 310,000 compounds went through this assay and about 14,000 (4.5%) showed an effect of 50% or more. Effects have a minus sign here. The list shows a part of the results.
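Note: peak tail current of the secondary pulse compared with the same well before compound.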

In this assay the target is human ether-à-go-go-related gene (hERG) potassium channel (human, UniProt Q12809). Kind of assay: primary screen, population patch clamp on CHO cells stably expressing hERG.
human ether-à-go-go-related gene (hERG) potassium channel, sequence (Q12809 whole entry, looked up): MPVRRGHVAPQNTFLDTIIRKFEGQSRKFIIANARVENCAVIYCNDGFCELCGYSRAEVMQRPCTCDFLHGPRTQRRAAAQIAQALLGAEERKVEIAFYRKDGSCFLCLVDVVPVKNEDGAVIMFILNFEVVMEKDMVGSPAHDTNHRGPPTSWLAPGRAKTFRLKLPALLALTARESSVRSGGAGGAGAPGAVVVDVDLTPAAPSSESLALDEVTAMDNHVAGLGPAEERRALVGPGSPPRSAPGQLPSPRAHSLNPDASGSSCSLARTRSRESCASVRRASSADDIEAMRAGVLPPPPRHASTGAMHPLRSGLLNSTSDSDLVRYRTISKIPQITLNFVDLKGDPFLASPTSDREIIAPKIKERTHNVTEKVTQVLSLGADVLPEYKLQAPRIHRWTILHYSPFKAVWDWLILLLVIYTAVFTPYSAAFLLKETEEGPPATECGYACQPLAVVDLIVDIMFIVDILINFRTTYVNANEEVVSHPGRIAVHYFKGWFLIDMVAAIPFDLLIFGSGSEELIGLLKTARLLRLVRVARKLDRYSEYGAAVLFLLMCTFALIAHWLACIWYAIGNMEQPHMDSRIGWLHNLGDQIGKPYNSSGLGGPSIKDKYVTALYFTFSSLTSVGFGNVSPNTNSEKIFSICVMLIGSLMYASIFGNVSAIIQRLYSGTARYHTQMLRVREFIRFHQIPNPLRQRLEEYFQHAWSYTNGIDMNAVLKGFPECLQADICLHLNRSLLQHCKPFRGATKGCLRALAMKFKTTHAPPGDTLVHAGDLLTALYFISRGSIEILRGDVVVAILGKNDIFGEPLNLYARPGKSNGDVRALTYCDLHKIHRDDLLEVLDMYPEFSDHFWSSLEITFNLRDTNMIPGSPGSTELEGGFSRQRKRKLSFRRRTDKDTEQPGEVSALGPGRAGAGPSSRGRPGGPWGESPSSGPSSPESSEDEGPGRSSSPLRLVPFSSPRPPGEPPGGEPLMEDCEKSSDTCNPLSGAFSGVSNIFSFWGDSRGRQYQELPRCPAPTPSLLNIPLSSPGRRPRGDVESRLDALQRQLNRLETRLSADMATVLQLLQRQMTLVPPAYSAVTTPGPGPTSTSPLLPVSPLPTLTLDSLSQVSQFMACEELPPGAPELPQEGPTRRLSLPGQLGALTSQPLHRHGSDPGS
Consider `CCCn1nnnc1NCc1ccc(N(CC)CC)cc1`, for which the “hERG current change (%, negative = inhibition) at 10uM” value is listed as 10.3%.

Take `Cc1cc(C)nc(NC(=O)c2cc([N+](=O)[O-])cc([N+](=O)[O-])c2)n1`: the “hERG current change (%, negative = inhibition) at 10uM” value came to 0.675%.

Regarding `COc1ccc(C2c3[nH]c4ccccc4c3C[C@H]3C(=O)N(c4ccccc4C(=O)N4CCC[C@@H]4C(=O)O)C(=O)N23)cc1` (some centres unmarked), the “hERG current change (%, negative = inhibition) at 10uM” value is 14.8%.

On to `Cc1nnsc1NC(=O)OCC(C)C`, for which the “hERG current change (%, negative = inhibition) at 10uM” value is 26.6%.

Consider `Cc1[nH]n(-c2ccc(Br)cc2)c(=O)c1/C=N/NC(=O)c1ccccc1`, for which the “hERG current change (%, negative = inhibition) at 10uM” value is 10.4%.

As to `CN(C(=O)COC(=O)CNC(=O)c1ccc(Cl)cc1Cl)c1ccccc1`, the “hERG current change (%, negative = inhibition) at 10uM” value is recorded as 38.1%.

Regarding `CCCCN(CC)Cc1ccc(CNC(=O)Nc2ccc(F)cc2)o1`, the “hERG current change (%, negative = inhibition) at 10uM” value is on record as -32.1%.

In the case of `COc1ccc(-c2noc(COc3ccc4c(c3)OCO4)n2)cc1OC`, the “hERG current change (%, negative = inhibition) at 10uM” value was 4.02%.

As to `COc1ccccc1CNC(=O)COC(=O)c1nc(Cl)ccc1Cl`, the “hERG current change (%, negative = inhibition) at 10uM” value is listed as -2.78%.

On to `Cn1cc(C(=O)Nc2ccc(F)c(Cl)c2)cn1`, for which the “hERG current change (%, negative = inhibition) at 10uM” value came to 0.537%.

In the case of `CC1=C(C(=O)OCC2CCCCC2)C(c2ccc(O)cc2)NC(=O)N1` (centres unmarked), the “hERG current change (%, negative = inhibition) at 10uM” value is given as 12.7%.

As for `c1ccc2c(-c3nnc4n3CCCCC4)cc(-c3ccncc3)nc2c1`, the “hERG current change (%, negative = inhibition) at 10uM” value was -48.7%.

Consider `COC(=O)C1=C(C)N(c2ccc(OC)c(OC)c2)C(=O)C1`, for which the “hERG current change (%, negative = inhibition) at 10uM” value is recorded as 20.5%.

For `O=C1C2C3CCCC3=C3CCCC3C2C(=O)N1c1ccc(F)cc1` (centres unmarked), the “hERG current change (%, negative = inhibition) at 10uM” value was determined as 2.87%.

`CCOC(=O)CCNC(=O)N1CCC(CCC(=O)NCc2ccc(F)cc2)CC1`: the “hERG current change (%, negative = inhibition) at 10uM” value is reported as 7.71%.

Turning to `C=CCN(Cc1cc(OC)ccc1OC)S(=O)(=O)N(C)C`, the “hERG current change (%, negative = inhibition) at 10uM” value was -1.96%.

As to `NS(=O)(=O)c1ccc(CCNC(=O)C(=O)c2c[nH]c3ccccc23)cc1`, the “hERG current change (%, negative = inhibition) at 10uM” value was -14.3%.

As to `Cc1ccc(C(C(=O)NCc2ccccc2)N(C(=O)c2csnn2)c2cccc3ccccc23)o1` (centres unmarked), the “hERG current change (%, negative = inhibition) at 10uM” value is recorded as -13.2%.

`COc1ccc(OCCNC(=O)C(Cc2c[nH]c3ccccc23)NC(C)=O)cc1` (centres unmarked): the “hERG current change (%, negative = inhibition) at 10uM” value is 7.49%.

With `CC1(C)CC(=O)c2cnc(NC(=O)CCc3ccccc3)nc2C1`, the “hERG current change (%, negative = inhibition) at 10uM” value is given as -6.5%.

Regarding `Cc1ccc2nc(-c3ccc4c(c3)OCCO4)cc(C(=O)O)c2c1`, the “hERG current change (%, negative = inhibition) at 10uM” value was determined as 4.86%.

Turning to `O=S(=O)(c1ccc(-n2cnnn2)cc1)N1CCNCC1`, the “hERG current change (%, negative = inhibition) at 10uM” value was -6.09%.

Regarding `CC(C)(C)NC(=O)Cc1ccc(S(=O)(=O)N2CCCC2)s1`, the “hERG current change (%, negative = inhibition) at 10uM” value is 15.2%.

Take `O=c1oc2cc(Br)ccc2n1Cc1ccccc1`: the “hERG current change (%, negative = inhibition) at 10uM” value came out at 18.6%.

As to `CN(C(=O)CSC1=NCCS1)c1ccccc1`, the “hERG current change (%, negative = inhibition) at 10uM” value is recorded as 11.9%.

As to `CCC(Sc1nc2n[nH]c(C)c2c(=N)n1-c1cccc(Cl)c1)C(=O)NCCOC` (centres unmarked), the “hERG current change (%, negative = inhibition) at 10uM” value was -23.4%.

`COc1ccccc1NC(=O)N1CCCC1C(=O)NCc1cccs1` (centres unmarked): the “hERG current change (%, negative = inhibition) at 10uM” value is 0.509%.

Turning to `COc1cc(OC)cc(-c2nc(-c3ccc(Br)cc3)no2)c1`, the “hERG current change (%, negative = inhibition) at 10uM” value worked out at 11%.

For `Cc1ccc(C=Nc2ccc(N(C)C)cc2)o1`, the “hERG current change (%, negative = inhibition) at 10uM” value is -0.267%.

Turning to `Cc1ccnc(SCCn2c(N3CCN(c4ccccc4)CC3)nc3c2c(=O)[nH]c(=O)n3C)n1`, the “hERG current change (%, negative = inhibition) at 10uM” value is on record as -17.3%.

`COc1ccc(Cl)cc1S(=O)(=O)NCc1cccnc1`: the “hERG current change (%, negative = inhibition) at 10uM” value is listed as -1.75%.

For the molecule `Cc1nc(-c2ccc(F)cc2)c(CC(=O)N(C)CC(=O)Nc2ccccc2Cl)s1`, the “hERG current change (%, negative = inhibition) at 10uM” value stood at 15.8%.

`Cc1ccc(C(=O)NCC(=O)N2CCCCCC2)cc1`: the “hERG current change (%, negative = inhibition) at 10uM” value stood at 21.5%.

On to `COCC(C)OC(=O)c1c(N)n(-c2ccc(OC)c(OC)c2)c2nc3ccccc3nc12` (centres unmarked), for which the “hERG current change (%, negative = inhibition) at 10uM” value is recorded as -27.1%.

As for `Cc1ccc(-c2ccnc3nc(-n4cccc4)nn23)o1`, the “hERG current change (%, negative = inhibition) at 10uM” value amounted to 8.59%.

As to `C#CCSc1n[nH]c(=O)n1-c1cccc(C(F)(F)F)c1`, the “hERG current change (%, negative = inhibition) at 10uM” value is given as -0.283%.

As for `COC(=O)C1=C(c2ccc(-c3ccccc3)c(F)c2)C[C@@H]2CC[C@H]1N2C(=O)NCCc1ccccc1`, the “hERG current change (%, negative = inhibition) at 10uM” value stood at 25%.

`O=S(=O)(c1ccc(NC(=S)N/N=C/c2ccc(O)c(O)c2)cc1)N1CCOCC1`: the “hERG current change (%, negative = inhibition) at 10uM” value is reported as 21.3%.

On to `O=c1[nH]c(CN2CCN(S(=O)(=O)c3ccc(Cl)cc3)CC2)nc2cc(Cl)ccc12`, for which the “hERG current change (%, negative = inhibition) at 10uM” value is -11.8%.

`CCn1c(COc2ccc(=O)n(-c3ccccc3)n2)n[nH]c1=S`: the “hERG current change (%, negative = inhibition) at 10uM” value is reported as 23.3%.

Turning to `Cc1cccc(C(=O)N(NC(=O)Oc2ccccc2)C(C)(C)C)c1`, the “hERG current change (%, negative = inhibition) at 10uM” value was -13%.

As to `Cc1ccn2c(C(=O)NNC(=O)Nc3ccc(Cl)cc3)c(C)nc2c1`, the “hERG current change (%, negative = inhibition) at 10uM” value was -12.3%.

Consider `CC(OC(=O)c1cc(S(=O)(=O)N2CCOCC2)ccc1Br)C(=O)N1CCOCC1` (centres unmarked), for which the “hERG current change (%, negative = inhibition) at 10uM” value is given as -12%.

`COc1ccccc1-c1nn2c(C3COc4ccccc4O3)nnc2s1` (centres unmarked): the “hERG current change (%, negative = inhibition) at 10uM” value is -1.05%.

For the origin of these results see publication PMC4336329 (PLoS ONE, 2015).
